Results as given in paper PMC4336329 (PLoS ONE, 2015).
Among all 310,000 compounds or so, about 14,000 (4.5%) showed an effect of 50% or more. Effects have a minus sign here. Some of the results follow.

biological target: human ether-à-go-go-related gene (hERG) potassium channel (human, UniProt Q12809); assay: primary screen, population patch clamp on CHO cells stably expressing hERG
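Further: peak tail current of the secondary pulse compared with the same well before compound.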

Chain of human ether-à-go-go-related gene (hERG) potassium channel (Q12809 whole entry, looked up): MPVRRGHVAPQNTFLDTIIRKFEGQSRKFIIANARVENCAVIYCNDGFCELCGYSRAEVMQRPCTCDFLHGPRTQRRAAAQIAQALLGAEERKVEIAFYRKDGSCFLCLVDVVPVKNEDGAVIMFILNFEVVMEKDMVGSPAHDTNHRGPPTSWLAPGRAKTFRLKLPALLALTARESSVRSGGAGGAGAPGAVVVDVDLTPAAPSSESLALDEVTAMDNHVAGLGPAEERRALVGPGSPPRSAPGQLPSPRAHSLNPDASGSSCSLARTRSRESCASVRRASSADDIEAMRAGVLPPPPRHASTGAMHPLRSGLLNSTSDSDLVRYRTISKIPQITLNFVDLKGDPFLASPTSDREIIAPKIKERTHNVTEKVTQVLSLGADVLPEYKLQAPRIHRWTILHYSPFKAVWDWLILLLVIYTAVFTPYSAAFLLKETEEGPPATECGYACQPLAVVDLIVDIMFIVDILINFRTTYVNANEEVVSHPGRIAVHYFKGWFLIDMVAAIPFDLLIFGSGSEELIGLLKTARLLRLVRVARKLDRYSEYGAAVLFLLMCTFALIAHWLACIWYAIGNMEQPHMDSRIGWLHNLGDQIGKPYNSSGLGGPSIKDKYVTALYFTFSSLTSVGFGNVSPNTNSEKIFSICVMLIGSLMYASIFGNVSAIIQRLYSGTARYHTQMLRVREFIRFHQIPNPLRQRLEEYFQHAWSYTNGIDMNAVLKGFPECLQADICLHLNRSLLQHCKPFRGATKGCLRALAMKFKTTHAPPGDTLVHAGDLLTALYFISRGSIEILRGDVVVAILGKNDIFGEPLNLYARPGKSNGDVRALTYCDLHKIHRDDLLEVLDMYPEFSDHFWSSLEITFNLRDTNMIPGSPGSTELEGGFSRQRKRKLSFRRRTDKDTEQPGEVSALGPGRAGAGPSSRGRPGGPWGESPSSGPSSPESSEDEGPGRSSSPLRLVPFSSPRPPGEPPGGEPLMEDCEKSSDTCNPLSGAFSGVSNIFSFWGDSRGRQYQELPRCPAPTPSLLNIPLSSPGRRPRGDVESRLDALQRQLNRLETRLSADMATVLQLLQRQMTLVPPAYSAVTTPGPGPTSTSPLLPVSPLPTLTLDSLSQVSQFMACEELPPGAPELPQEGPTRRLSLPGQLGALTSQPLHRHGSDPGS

Compared with `O=C(CCN1c2ccccc2Sc2ccccc21)OCc1nnc(-c2ccccc2)o1`, `O=C(COc1ccc2oc(-c3ccccc3)cc(=O)c2c1)Nc1ccccc1` is lower in “hERG current change (%, negative = inhibition) at 10uM” value: 5.92% for the first, -2.43% for the second.

Going from `CCN(CC)CCNC(=O)c1cn(CC)c2ccc(S(=O)(=O)N3CCOCC3)cc2c1=O` to `CC(C)(CNC(=O)c1ccc(S(=O)(=O)N2CCCC2)cc1)N1CCOCC1`, the “hERG current change (%, negative = inhibition) at 10uM” value falls from 14.6% to 12%.

Going from `CCOc1cc(NC(=S)NCCCN2CCOCC2)c(OCC)cc1NC(=O)c1cccc(F)c1` to `CCOc1ccc(C(=O)Nc2cc(Cl)ccc2-n2cncn2)cc1OC`, the “hERG current change (%, negative = inhibition) at 10uM” value falls from -1.87% to -5.4%.

First: CCOc1ccccc1-n1c(SCC(N)=O)nc2ccccc2c1=O
Second: COCCn1c(SCC(=O)c2[nH]c(C)c(C(C)=O)c2C)nc2ccccc2c1=O
The “hERG current change (%, negative = inhibition) at 10uM” value of the first is higher: 0.156% for the first, -12% for the second.

Compared with `COc1cc(NC(=O)c2cccnc2)ccc1NC(=O)c1ccccc1Cl`, `O=C(Nc1cccc(C(F)(F)F)c1)c1cccnc1` is lower in “hERG current change (%, negative = inhibition) at 10uM” value: 3.64% for the first, -21.3% for the second.

Going from `CC1=Nn2c(nnc2-c2ccccn2)SC1` to `Cc1nnc(-n2cnc3ccccc32)c2ccccc12`, the “hERG current change (%, negative = inhibition) at 10uM” value rises from -5.5% to -5.31%.

First: O=C1C2C(C(=O)N1/N=C/c1cc([N+](=O)[O-])c(O)cc1O)C1C=CC2C12CC2 (stereo not drawn)
Second: Cc1ccc(C(=O)NN2C(=O)C3C4C=CC([C@@H]3C2=O)C42CC2)cc1 (stereo partly drawn)
The “hERG current change (%, negative = inhibition) at 10uM” value of the first is lower: -17.7% for the first, 18.6% for the second.

Compared with `Cc1ccc(S(=O)(=O)N2CCN(S(=O)(=O)c3ccc(C)cc3)C2)cc1`, `O=C(CN(Cc1ccc(F)cc1)S(=O)(=O)c1ccc(S(=O)(=O)N2CCOCC2)cc1)Nc1ccccc1` is higher in “hERG current change (%, negative = inhibition) at 10uM” value: -24.9% for the first, 3.83% for the second.

Going from `CCOC(=O)C(=NC(C)(C)C)NNc1cc(Cl)ccc1Cl` to `O=C(CN1CCOCC1)Nc1cc(Cl)ccc1Cl`, the “hERG current change (%, negative = inhibition) at 10uM” value falls from 5.53% to -32.5%.

First: COc1ccc(Cc2nnc(NC(=O)C3CC(=O)N(c4ccccc4C)C3)s2)cc1OC (stereo not drawn)
Second: Cc1ccccc1-c1nnc(NC(=O)c2ccc(N3C(=O)CCC3=O)cc2)s1
The “hERG current change (%, negative = inhibition) at 10uM” value of the first is lower: 11.2% for the first, 21% for the second.

Compared with `O=C(COc1ccc(S(=O)(=O)N2CCOCC2)cc1)NC1CCCC1`, `Cc1cc(C)cc(OCCNC(=O)C2CCN(S(=O)(=O)c3ccccc3)CC2)c1` is lower in “hERG current change (%, negative = inhibition) at 10uM” value: -10.1% for the first, -11.3% for the second.

First: O=C1CSC(c2ccccc2)N1c1ccccc1F (stereo not drawn)
Second: O=C(O)c1ccccc1C(=O)NC1Cc2ccccc2C1
The “hERG current change (%, negative = inhibition) at 10uM” value of the first is higher: 10.7% for the first, 2.54% for the second.

First: O=C(O)c1cc(S(=O)(=O)Nc2ccc3cn[nH]c3c2)ccc1O
Second: Cc1ccc(NC(=O)Cc2c(C(=O)O)n(C)c3ccccc23)cc1F
The “hERG current change (%, negative = inhibition) at 10uM” value of the first is lower: -1.79% for the first, 30.3% for the second.

Going from `COC/C=C/C1=CC2=CC(=O)C(C)(OC(=O)CCC(=O)OC)C(=O)C2=CO1` (stereo not drawn) to `COC(=O)Cn1c(=O)oc2ccc(C)cc21`, the “hERG current change (%, negative = inhibition) at 10uM” value falls from 1.38% to -3.99%.

Going from `CCCNC(=O)c1c(N)n(Cc2ccco2)c2nc3ccccc3nc12` to `O=C(CSc1nnc(CNC(=O)c2c(F)cccc2F)o1)NCc1ccco1`, the “hERG current change (%, negative = inhibition) at 10uM” value rises from 1.34% to 9.67%.

Compared with `CC(C)CNC(=O)c1cccc(Cn2cc(Cl)cn2)c1`, `COC(=O)c1cccc(NC(=O)c2cnccn2)c1` is higher in “hERG current change (%, negative = inhibition) at 10uM” value: 4.12% for the first, 17.2% for the second.

Compared with `CCc1cc(SC#N)ccc1N`, `CCOC(=O)c1cc2cc([N+](=O)[O-])ccc2oc1=O` is lower in “hERG current change (%, negative = inhibition) at 10uM” value: 12.9% for the first, -21.7% for the second.

Going from `COc1ccc(C(CNC(=O)CN2C(=O)NC3(CCCC3)C2=O)N(C)C)cc1` (stereo not drawn) to `Cc1ccc(C(=O)NCCNC(=O)CN2CCCC2)cc1`, the “hERG current change (%, negative = inhibition) at 10uM” value falls from 15.6% to 5.16%.

Going from `COC(=O)CSCC(=O)Nc1nnc(-c2cccc(C)c2)s1` to `Cc1ccnc(NC(=O)CNC(=O)c2ccco2)c1`, the “hERG current change (%, negative = inhibition) at 10uM” value falls from 13.7% to 8.46%.

Compared with `Cc1sc2ccccc2[n+]1CC(=O)O.[Br-]`, `CC1Cc2ccccc2N1C(=O)c1ccc(Br)o1` (stereo not drawn) is lower in “hERG current change (%, negative = inhibition) at 10uM” value: 9.88% for the first, -13.1% for the second.

Compared with `Cc1cc(N2C(=O)C3C4C=CC(C4)C3C2=O)no1` (stereo not drawn), `CS(=O)(=O)O.O=C(O)c1ccc2c(c1)c1c3n2CCNC3CCC1` (stereo not drawn) is higher in “hERG current change (%, negative = inhibition) at 10uM” value: 14.7% for the first, 20.7% for the second.

Going from `Cc1ccc(S(=O)(=O)N(C)C)cc1NC(=O)CN1C(=O)NC(Cc2ccccc2)C1=O` (stereo not drawn) to `COc1cc2c(cc1NC(=O)CSc1nc3ccc(C)cc3[nH]1)oc1ccccc12`, the “hERG current change (%, negative = inhibition) at 10uM” value falls from 8.61% to 7.65%.

Compared with `CCCOc1ccc(NC(=O)C2CC(=O)N(C)C(=Nc3cccc(OC)c3)S2)cc1` (stereo not drawn), `COc1ccc([C@H]2CC(=O)C=C(c3ccc(OC)c(F)c3)C2)cc1` is higher in “hERG current change (%, negative = inhibition) at 10uM” value: 8.39% for the first, 14% for the second.

Going from `CCOC(=O)N1CCC(=C(C#N)C(=O)Nc2cc(OC)ccc2OC)CC1` to `CCN1CCC(NC(=O)Nc2cc(Cl)ccc2OC)CC1`, the “hERG current change (%, negative = inhibition) at 10uM” value falls from 19.8% to -2.83%.

Going from `COc1ccc(OC)c(/C=c2\sc3nc(-c4cccs4)nn3c2=O)c1` to `COc1ccccc1-c1nc2cc(Cl)ccc2c(=O)n1O`, the “hERG current change (%, negative = inhibition) at 10uM” value rises from 1.04% to 24.8%.

First: COc1ccc2c(c1)O[C@@H](c1cccc(C(F)(F)F)c1)[C@H](OC(=O)N[C@H]1CCCc3ccccc31)C2=O
Second: COc1ccc(C2=NN(C(=O)c3cccs3)C(c3ccccc3O)C2)cc1 (stereo not drawn)
The “hERG current change (%, negative = inhibition) at 10uM” value of the first is lower: -13.6% for the first, 8.21% for the second.

Going from `COc1cccc(/C=C/C(=O)NCc2ccc(S(N)(=O)=O)cc2)c1` to `COc1ccc(-c2cc(N)n(S(=O)(=O)c3ccc(C)cc3)n2)c(OC)c1`, the “hERG current change (%, negative = inhibition) at 10uM” value rises from -4.13% to 6.37%.

Going from `O=C(Nc1ccc(N2CCCC2)cc1)c1ccccc1F` to `CCN(CC)C(=O)C1CCCN(Cc2ccc3ccccc3c2)C1` (stereo not drawn), the “hERG current change (%, negative = inhibition) at 10uM” value falls from 16.6% to -19%.

First: COC(=O)c1c(C(=O)OC)c(-c2ccc(F)cc2)n2c1CSC2
Second: COc1ccc(C2=NCCc3cc(OC)c(OC)cc32)cc1
The “hERG current change (%, negative = inhibition) at 10uM” value of the first is higher: -2.55% for the first, -35.1% for the second.

First: O=c1oc2ccc3ccccc3c2cc1-c1nnc(-c2cccs2)o1
Second: Cc1c(NC(=O)c2cc(-c3cccs3)nc3ccccc23)c(=O)n(-c2ccccc2)n1C
The “hERG current change (%, negative = inhibition) at 10uM” value of the first is lower: -1.73% for the first, 4.12% for the second.

Compared with `Cc1ccc(CN2CCN(C/C=C/c3ccc(F)cc3)CC2CCO)o1` (stereo not drawn), `CCCCOc1ccc(C(=O)NCC(=O)N2CCN(Cc3ccc4c(c3)OCO4)CC2)cc1` is higher in “hERG current change (%, negative = inhibition) at 10uM” value: -54.5% for the first, -42.4% for the second.

Compared with `CCOc1ccc(-n2cnc3sc4c(c3c2=O)CCCC4)cc1`, `Nc1c2c(nc3ccn(Cc4ccccc4)c(=O)c13)CCC2` is lower in “hERG current change (%, negative = inhibition) at 10uM” value: 0.253% for the first, -66% for the second.

Compared with `COc1ccc2cc3c(N)nn(C(=O)Cc4c[nH]c5ccccc45)c3nc2c1`, `CC(C)CCNC(=O)Cc1ccc(Nc2nc(=S)[nH]c3ccccc23)cc1` is lower in “hERG current change (%, negative = inhibition) at 10uM” value: 18.1% for the first, 9.64% for the second.

Compared with `CCOc1nc(Nc2ccc(OC)c(Cl)c2)nc(N2CCN(c3ccc(OC)cc3)CC2)n1`, `O=c1nc(SCc2c(F)cccc2Cl)nc(-c2ccc(Cl)cc2)[nH]1` is lower in “hERG current change (%, negative = inhibition) at 10uM” value: 14.9% for the first, 10.5% for the second.

Going from `O=C(/C=C/c1ccnc2ccccc12)c1cccs1` to `O=c1[nH][nH]c(-c2ccccc2)c1C=Nc1ccccc1Cl`, the “hERG current change (%, negative = inhibition) at 10uM” value falls from 0.0515% to -9.47%.

First: COC(=O)C1CN(S(=O)(=O)c2ccc(NC(C)=O)cc2)CCS1 (stereo not drawn)
Second: CC(=O)c1cccc(NC(=O)N2CCCC2C(=O)Nc2cccc(C)c2C)c1 (stereo not drawn)
The “hERG current change (%, negative = inhibition) at 10uM” value of the first is higher: 13.4% for the first, -0.374% for the second.

Going from `O=C(O)C1CCN(c2ncccn2)CC1` to `CCOC(=O)c1c(NC(C)=O)sc2c1C1CCN2CC1.Cl`, the “hERG current change (%, negative = inhibition) at 10uM” value rises from 9.57% to 18.5%.

Going from `CCC(=O)N(C1=C(NC(C)C)C(=O)c2ccccc2C1=O)C(C)C` to `COC(=O)Cn1c(CN2CCc3ccccc3C2)nc2c1c(=O)n(C)c(=O)n2C`, the “hERG current change (%, negative = inhibition) at 10uM” value falls from 4.82% to -28%.

Going from `CC(C)(C)OC(=O)N1CCCN(C(=O)c2ccc(Cl)cc2)CC1` to `Clc1ccc(CSc2nnc(NC3=NCCCCC3)s2)cc1`, the “hERG current change (%, negative = inhibition) at 10uM” value falls from 13% to -6.08%.

Going from `Cc1no[n+]([O-])c1COc1ccccc1/C=C1\NC(=S)NC1=O` to `CCOc1cc(/C=N/NC(=O)Cn2nc([N+](=O)[O-])cc2C)cc(Br)c1OCc1ccccc1F`, the “hERG current change (%, negative = inhibition) at 10uM” value rises from 3.63% to 8.58%.

Going from `O=C1C=C(NCc2ccc3c(c2)OCO3)CC(c2ccccc2)C1` (stereo not drawn) to `O=C(O)C(=O)O.c1ccc(CNCCc2ccc3c(c2)OCO3)nc1`, the “hERG current change (%, negative = inhibition) at 10uM” value rises from -76.9% to 2.74%.

Compared with `COc1ccc(CCNC(=O)CN(c2cc(C)cc(C)c2)S(=O)(=O)c2c(C)noc2C)cc1OC`, `COc1cccc(N(CC(=O)NC2CCCCC2)C(=O)CCC(=O)Nc2nc(C)cs2)c1` is higher in “hERG current change (%, negative = inhibition) at 10uM” value: -22.6% for the first, -15.4% for the second.

Going from `Nc1c(Br)cc2oc(-c3ccccc3)nc2c1Br` to `CCc1ccc(N2CN(Cc3cccnc3)CNC2=S)cc1`, the “hERG current change (%, negative = inhibition) at 10uM” value falls from -5.69% to -8.66%.

Going from `Cc1nn(C(=O)N2CCOCC2)c(C)c1C` to `CCOC(=O)CN1C(=O)S/C(=C/c2cc(C)n(C)c2C)C1=O`, the “hERG current change (%, negative = inhibition) at 10uM” value falls from 22% to -3.84%.

Compared with `Cc1oc(CC(C)C)c(CN)c1C(=O)O.Cl`, `CC1(C)CC(=O)c2sc(N)nc2C1` is lower in “hERG current change (%, negative = inhibition) at 10uM” value: -7.41% for the first, -11.1% for the second.
